Assay results: the supplement of paper PMC3334620
Over roughly 33,000 sequences, “E-score (-0.5 to 0.5)” has its median near -0.036; the highest 2% begin near 0.37. The list shows a part of the results.

target: T1, Yer064c (UniProt P40041); assay: PBM E-score (8-mer binding enrichment) (E-score (-0.5 to 0.5)); higher = stronger / more preferred TF binding; most listed sequences are background and not binding sites; details: protein concentration: 200 nM; construct: GST-full length
T1 sequence: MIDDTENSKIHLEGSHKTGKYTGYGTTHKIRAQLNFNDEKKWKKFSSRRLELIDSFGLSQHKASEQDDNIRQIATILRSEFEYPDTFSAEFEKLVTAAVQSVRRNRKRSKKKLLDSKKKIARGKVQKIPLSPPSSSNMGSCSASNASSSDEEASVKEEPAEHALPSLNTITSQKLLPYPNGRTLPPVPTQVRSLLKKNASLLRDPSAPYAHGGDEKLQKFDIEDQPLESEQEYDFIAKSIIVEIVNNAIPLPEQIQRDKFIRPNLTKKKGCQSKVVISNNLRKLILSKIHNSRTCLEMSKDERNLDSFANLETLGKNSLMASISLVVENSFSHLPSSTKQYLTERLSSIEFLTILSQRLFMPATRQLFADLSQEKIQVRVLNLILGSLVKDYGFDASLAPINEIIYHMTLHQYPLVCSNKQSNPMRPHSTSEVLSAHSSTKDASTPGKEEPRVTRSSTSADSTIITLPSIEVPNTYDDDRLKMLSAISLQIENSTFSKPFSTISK
Description: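 Universal 'all 10-mer' protein binding microarrays (Agilent AMADID 015681) probed with GST-tagged S. cerevisiae TFs (full-length or DBD) made by in vitro transcription/translation (PURExpress), about 100-200 nM. Bound TF was detected with fluorescent anti-GST. Each ungapped 8-mer (which stands for itself and its reverse complement) is scored by the PBM enrichment score (E-score), a modified Wilcoxon-Mann-Whitney statistic from -0.5 to +0.5, computed with the Universal PBM Analysis Suite. Scale: above 0.35 generally sequence-specific binding.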

Point of comparison: ACACCAGT, “PBM E-score” value 0.0254. Against it:
- GAACTCAC — higher, 0.25
- ATAGGCGC — lower, -0.219
- ACTGACCC — higher, 0.0295
- AGTAGTGG — lower, -0.0372
- CGGGTCTA — lower, -0.135
- AATTAGAA — lower, -0.0394
- AGGCGGGC — lower, -0.382
- ACATGTCA — lower, -0.126
- ACCCGTAC — lower, -0.183
- ATAAAGGC — lower, -0.143
- AGAACTCA — higher, 0.187
- AGTGATCA — higher, 0.211
- GGCGCACC — lower, -0.25
- CCAAACCA — lower, -0.159
- AGACGTAT — lower, -0.0172
- AACTGCAG — lower, -0.145
- GTTATTAA — higher, 0.0491
- ATGTCAAA — lower, 0.00407
- AAACACTT — lower, -0.0548
- GACACTTA — lower, -0.0441
- GCTGCAGA — lower, -0.0903
- TAGGATCA — higher, 0.0673
- AACGCGAG — lower, -0.00013
- ACACGCAA — lower, -0.0968
- GCCCCGGA — lower, -0.22
- GCAACCCA — lower, -0.0277
- AGTTTGAT — higher, 0.163
- CAAAGTGA — higher, 0.113
- CAACCCCA — lower, -0.0646
- CAGACACC — lower, -0.0709
- CGAAGGGA — lower, -0.119
- ACGATACG — lower, -0.207
- CGGTCTCC — lower, -0.249
- GGCAACGA — lower, -0.148
- GAATCGGA — higher, 0.218
- CTAGTCCA — higher, 0.109
- CCCGACCG — lower, -0.385
- CTTTTAAA — lower, 0.0136
- CCGCAGCA — lower, -0.194
- ATTACCTG — higher, 0.0843
- AAGGCCGT — lower, -0.258
- ACCGCATG — higher, 0.0271
- AGGCGCCG — lower, -0.125
- AGTGTTAC — higher, 0.0396
- ACGCTTGA — lower, 0.012
- GTAGTATA — higher, 0.084
- AAATGGCA — lower, -0.131
- AAGGCTTA — higher, 0.0432
- CATGCTCG — lower, 0.0136
- ATGGGACG — lower, -0.308
- CAAAGGGC — lower, -0.031
- GAGGGACA — lower, -0.267
- ATGTTAAT — higher, 0.169
- CCATTGAC — higher, 0.0546
- AGATTAAA — higher, 0.309
- CCAGCCGC — lower, 0.0158
- ATTCTAAA — higher, 0.0754
- AGAGTACG — higher, 0.0698
- TCCGTTCA — lower, -0.165
- AGGCTCGC — lower, -0.22
- AACGTAAT — lower, 0.023
- CGAAGGAA — lower, -0.052
- ATAAGGGA — lower, -0.25
- ATCGGAGC — lower, -0.0582
- CCCGATGC — lower, -0.222
- GCCCTGGA — lower, -0.297
- ACACAAAC — lower, -0.0121
- AGAACCCA — lower, -0.0189
- GGCTATGA — higher, 0.113
- TATTTGGA — lower, -0.119
- CATAGGAA — lower, -0.154
- GAGGACCA — lower, -0.0209
- CCACGAGA — lower, -0.109
- AGTCCTCC — higher, 0.298
- CCCAGACA — lower, -0.198
- GCACTGAC — higher, 0.131
- CGCGCAAC — lower, -0.16
- ATGGACCA — lower, 0.0226
- GTGTGTTA — higher, 0.235
- ATCCGTGC — higher, 0.0406
- CGGCGGAA — lower, -0.185
- AATCTAAT — lower, -0.0337
- CTAGAGTA — higher, 0.138
- AATTCGTC — lower, -0.0764
- CTCCCTCA — lower, -0.12
- AACCCTTC — lower, -0.0797
- ATCAATAG — higher, 0.0427
- CCACGTTA — higher, 0.0265
- ATAGGACA — lower, -0.118
- AAATGGGG — lower, -0.226
- ACTATCCA — higher, 0.12
- CCTACGAC — higher, 0.21
- CGCTGAGC — lower, 0.00332
- TCGTAAAA — higher, 0.142
- CCAACCAA — lower, -0.265
- ACACGGCC — lower, -0.148
- AGGCGGTG — lower, -0.167
- CAGCCCTC — lower, -0.22
- CCTCTGCA — lower, -0.264
- ACTAGCCG — lower, -0.0796
- TCATGCCA — higher, 0.105
- CTATGGCA — lower, -0.311
- CTCTCCAA — lower, -0.0296
- CCGTTGAG — higher, 0.0485
- ATGGCACA — lower, -0.0931
- TCTTTTAA — higher, 0.0984
- ACCGTAAG — higher, 0.0406
- CCGCGGGA — lower, -0.0837
